# Out of some 210,000 compounds screened, about 5,900 (2.8%) were called active. This list was built around the results that the source calls inconclusive (neither active nor inactive); the mix of calls is not that of the screen. Calls come from the whole dose curve; as a rule, active = well fitted activation curve with a large enough effect; inconclusive = small, poorly fitted or top-dose-only effect; inactive = no such curve, though single readings can be large or run the other way. A potency beside an inconclusive call is a rough fit, not a confirmed value.
# Assay: qHTS Assay for Enhancers of SMN2 Splice Variant Expression; note: nearly all actives have a fitted effect of over 55% in size; for activity change, positive = activation: % of control where 0% means no effect
# Details: HEK293 SMN2-luciferase splicing reporter, luminescence, 30-36 h; activity change, positive = activation: at 46.1 µM (top of the series)
# In short: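 HEK293 cells carry an SMN2 […]–luciferase reporter in which exon 7 inclusion puts luciferase in frame. Cells were plated 10-12 h before compound addition, then incubated 30-36 h at 37C. ONE-Glo luminescence was read; sodium butyrate at 4.5 mM final served as control.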
# Potency is the fitted concentration of half-maximal effect; tags give direction and shape of the fitted curve.
Structure (SMILES),Potency,"activity change, positive = activation"
Cc1nn(-c2ccc(F)cc2)c(Cl)c1/C=N/NC(=O)c1cccs1,"inconclusive: 35.5 µM [activator, single point]",
Cc1ccc(OCc2ccc(C(=O)O)o2)c([N+](=O)[O-])c1,"inconclusive: 25.1 µM [activator, single point]",
CC(C)(O)C#Cc1ccc(C(=O)NC2CCCCC2)s1,"inconclusive: 7.94 µM [activator, partial curve]",
CCCc1ccc(OC(=O)c2ccc(O)cc2Cl)cc1,"inconclusive: 22.4 µM [activator, single point]",
Cc1ccc(C(=O)NC2CCCCCC2)o1,"inconclusive: 0.0224 µM [activator, full curve, poor fit]",
CN(C)CCNC(=O)/C(=C/c1cccc([N+](=O)[O-])c1)NC(=O)c1ccccc1,"inconclusive: 5.01 µM [activator, single point]",
CCCOC(=O)c1ccc(NC(=O)C(CC)CC)cc1,"inconclusive: 7.94 µM [activator, partial curve]",
CCOC(=O)c1c(NC(=O)c2cccs2)sc2c1CCN(C(=O)OCC)C2,"inconclusive: 6.31 µM [activator, partial curve]",
Cn1c(SCc2ccc(F)cc2)nnc1-c1ccccn1,"inconclusive: 7.08 µM [activator, partial curve]",
COc1ccc(N2CCN(C(=O)Cn3c(=O)[nH]c4ccccc4c3=O)CC2)cc1,"inconclusive: 35.5 µM [activator, partial curve, poor fit]",
Cc1ccc2nc(-c3cccc(N)c3)oc2c1,"inconclusive: 17.8 µM [activator, single point]",
O=Cc1ccccc1OCCOc1ccccc1C=O,"inconclusive: 11.2 µM [activator, single point]",
Cc1ccc(OCC(=O)Nc2ccc(F)cc2)cc1C,,inactive: 6.06%
CCCc1cc(-c2ccc(O)c(OCC)c2)c(C#N)c(N)n1,"inconclusive: 5.62 µM [activator, single point]",
Cc1[nH]n(-c2ccc(Cl)cc2)c(=O)c1/C=N/c1nnc(-c2ccccc2)s1,,inactive: 19.1%
CCC(=O)N1N=C(c2ccc(NS(C)(=O)=O)cc2)CC1c1ccc(N(C)C)cc1 (centres undefined),"inconclusive: 6.31 µM [activator, partial curve, poor fit]",
FC(F)Oc1ccc(/C=N/c2c(-c3ccc(OC(F)F)cc3)nc3n2CCS3)cc1,"inconclusive: 11.2 µM [activator, partial curve]",
COc1ccc(S(=O)(=O)n2nc(OC(=O)c3ccco3)cc2N)cc1,"inconclusive: 0.0035 µM [activator, full curve, poor fit]",
CCOC(=O)c1ccc(NC2SC(=O)N(Cc3cccc(C(=O)O)c3)C2=O)cc1 (centres undefined),"inconclusive: 10 µM [activator, partial curve]",
CCC(=O)Nc1ccc(NC(=O)c2ccccc2Cl)nc1,"inconclusive: 2.24 µM [activator, full curve]",
Fc1cccc(Cl)c1CSc1ccc(-c2ccco2)nn1,"inconclusive: 35.5 µM [activator, single point]",
O=c1sc(N2CCN(c3ccc(F)cc3)CC2)nc2ccsc12,"inconclusive: 7.94 µM [activator, partial curve]",

Structure (SMILES),Potency,"activity change, positive = activation"
Fc1ccc(Oc2ccc3nnc(C(F)(F)F)n3n2)cc1,,inactive: -0.204%
O=C(Nc1ccc2c(c1)oc1ccccc12)C1CC1,"inconclusive: 5.01 µM [activator, full curve, poor fit]",
Cc1noc(C)c1CSc1ncnc2sc3c(c12)CCC(C)C3 (centres undefined),"inconclusive: 0.0282 µM [activator, full curve, poor fit]",
CCOc1cc(C(=O)N2CCn3c4c(c5cc(C)ccc53)CCCC42)cc(OCC)c1OCC (centres undefined),"inconclusive: 35.5 µM [activator, single point]",
CCOC(=O)c1c(NC(=O)C2=C(C)NC(=S)NC2c2ccc(F)cc2)sc(C)c1C (centres undefined),,inactive: -12.6%
CC(C)(C)C(=O)Nc1ccc(C(=O)Nc2cccnc2)cc1,"inconclusive: 11.2 µM [activator, single point]",
Cc1cc(C)nc(NS(=O)(=O)c2ccc(NC(=S)NC(=O)CC(C)C)cc2)n1,,inactive: -16.2%
Cc1ccc(S(=O)(=O)N=S(CCO)CCO)cc1,"inconclusive: 10 µM [activator, partial curve]",
CCN1C(=O)c2cccc3c(NC(=O)c4ccc(S(=O)(=O)N(C)C)cc4)ccc1c23,active: 12.6 µM,
Cc1cc2ncc(-c3ccc(Cl)cc3)cn2n1,active: 11.2 µM,
CC1CN(C(=S)NC(=O)c2cccc([N+](=O)[O-])c2)CC(C)O1 (centres undefined),,inactive: -18.3%
O=C(CSC1=NCCN1)NC1CCCCCC1,"inconclusive: 3.98 µM [activator, single point]",
O=C(CCSc1ccccc1Cl)Nc1cccc([N+](=O)[O-])c1,"inconclusive: 8.91 µM [activator, partial curve, poor fit]",
Fc1ccc(/C=N/NC2=Nc3cccc4cccc2c34)cc1,active: 11.2 µM,
N#C/C(=C(/O)COC(=O)c1ccc(C#N)cc1)c1nc2ccccc2s1,"inconclusive: 10 µM [activator, partial curve]",
Cc1ccc(C2OC3=C(C(=O)CC(C)(C)C3)C(N)=C2C#N)o1 (centres undefined),"inconclusive: 0.631 µM [activator, full curve, poor fit]",
CC(C)C[C@@H](CC(=O)N[C@@H](CCCN)CC(=O)N[C@@H]1CCNC[C@H]1C(=O)N[C@H](CC(=O)N[C@@H](CCC(=O)O)CC(=O)O)Cc1ccccc1)NC(=O)[C@@H]1CCCC[C@H]1N,"inconclusive: 11.2 µM [activator, single point]",
CCCOc1ccc(-c2nc(=S)[nH][nH]2)cc1,active: 12.6 µM,
O=C(CN1CC(c2ccccc2)CC1=O)OCc1cccc(Br)c1 (centres undefined),,inactive: -6.52%
CC(=O)Nc1cccc(/C(C)=N/NS(=O)(=O)c2ccc(C)cc2)c1,,inactive: 13.9%
Cc1ccc(-c2cc(N)n[nH]2)cc1,"inconclusive: 22.4 µM [activator, partial curve]",
CCc1cccc2nc3c(c([Si](C)(C)C)c12)Cn1c-3cccc1=O,"inconclusive: 17.8 µM [activator, partial curve]",
